Measured values published in the supplement of paper PMC8728848.
This is one part of the list.

Key:
Assay in all cases: glycan array binding signal (z-score within array); higher = stronger binding
Conditions in all cases: glycan notation: IUPAC condensed, linker removed
Fuc(a1-2)Gal = target: Fuc(a1-2)Gal
Procedure, shortened: (§1)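 Glycan array data came from 3228 arrays in the Consortium for Functional Glycomics database, and only arrays with an available protein sequence were kept. Glycan names were put into IUPAC-condensed notation, and columns mapping to the same glycan were averaged. The binding signal is a within-array Z-score, averaged across arrays of one protein sequence run at different concentrations or buffers and across linkers. A negative Z-score can be read as non-binding.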

Fuc(a1-2)Gal(b1-3)GalNAc = target: Fuc(a1-2)Gal(b1-3)GalNAc
Procedure, shortened: as §1

[1] = target: Fuc(a1-2)Gal(b1-3)GalNAc(a1-3)[Fuc(a1-2)]Gal(b1-4)Glc
Procedure, shortened: as §1

[2] = target: Fuc(a1-2)Gal(b1-3)GalNAc(a1-3)[Fuc(a1-2)]Gal(b1-4)GlcNAc
Procedure, shortened: as §1

[3] = target: Fuc(a1-2)Gal(b1-3)GalNAc(b1-3)Gal
Procedure, shortened: as §1

[4] = target: Fuc(a1-2)Gal(b1-3)GalNAc(b1-3)Gal(a1-4)Gal(b1-4)Glc
Procedure, shortened: as §1

[5] = target: Fuc(a1-2)Gal(b1-3)GalNAc(b1-4)[Neu5Ac(a2-3)]Gal(b1-4)Glc
Procedure, shortened: as §1

Fuc(a1-2)Gal(b1-3)GlcNAc = target: Fuc(a1-2)Gal(b1-3)GlcNAc
Procedure, shortened: as §1

[6] = target: Fuc(a1-2)Gal(b1-3)GlcNAc(b1-2)Man(a1-3)[Fuc(a1-2)Gal(b1-3)GlcNAc(b1-2)Man(a1-6)]Man(b1-4)GlcNAc(b1-4)GlcNAc
Procedure, shortened: as §1

[7] = target: Fuc(a1-2)Gal(b1-3)GlcNAc(b1-2)Man(a1-3)[Fuc(a1-2)Gal(b1-3)GlcNAc(b1-2)Man(a1-6)]Man(b1-4)GlcNAc(b1-4)[Fuc(a1-6)]GlcNAc
Procedure, shortened: as §1

[8] = target: Fuc(a1-2)Gal(b1-3)GlcNAc(b1-3)Gal(b1-4)Glc
Procedure, shortened: as §1

[9] = target: Fuc(a1-2)Gal(b1-3)GlcNAc(b1-3)GalNAc
Procedure, shortened: as §1

[10] = target: Fuc(a1-2)Gal(b1-3)GlcNAc(b1-3)[Fuc(a1-2)Gal(b1-3)GlcNAc(b1-6)]GalNAc
Procedure, shortened: as §1

[11] = target: Fuc(a1-2)Gal(b1-3)GlcNAc(b1-3)[Gal(b1-4)GlcNAc(b1-6)]Gal(b1-4)Glc
Procedure, shortened: as §1

[12] = target: Fuc(a1-2)Gal(b1-3)GlcNAc(b1-3)[Neu5Ac(a2-6)Gal(b1-4)GlcNAc(b1-6)]Gal(b1-4)Glc
Procedure, shortened: as §1

[13] = target: Fuc(a1-2)Gal(b1-3)GlcNAc6S
Procedure, shortened: as §1

[14] = target: Fuc(a1-2)Gal(b1-3)[Fuc(a1-4)]GlcNAc
Procedure, shortened: as §1

[15] = target: Fuc(a1-2)Gal(b1-3)[Fuc(a1-4)]GlcNAc(b1-2)Man(a1-3)[Fuc(a1-2)Gal(b1-3)[Fuc(a1-4)]GlcNAc(b1-2)Man(a1-3)]Man(b1-4)GlcNAc(b1-4)GlcNAc
Procedure, shortened: as §1

[16] = target: Fuc(a1-2)Gal(b1-3)[Fuc(a1-4)]GlcNAc(b1-2)Man(a1-3)[Fuc(a1-2)Gal(b1-3)[Fuc(a1-4)]GlcNAc(b1-2)Man(a1-6)]Man(b1-4)GlcNAc(b1-4)[Fuc(a1-6)]GlcNAc(b1-4)[Fuc(a1-6)]GlcNAc
Procedure, shortened: as §1

[17] = target: Fuc(a1-2)Gal(b1-3)[Fuc(a1-4)]GlcNAc(b1-3)[Fuc(a1-3)[Gal(b1-4)]GlcNAc(b1-6)]Gal(b1-4)Glc
Procedure, shortened: as §1

[18] = target: Fuc(a1-2)Gal(b1-3)[Fuc(a1-4)]GlcNAc(b1-3)[Gal(b1-4)GlcNAc(b1-6)]Gal(b1-4)Glc
Procedure, shortened: as §1

Fuc(a1-2)Gal(b1-4)Glc = target: Fuc(a1-2)Gal(b1-4)Glc
Procedure, shortened: as §1

Fuc(a1-2)Gal(b1-4)Glc6S = target: Fuc(a1-2)Gal(b1-4)Glc6S
Procedure, shortened: as §1

Fuc(a1-2)Gal(b1-4)GlcNAc = target: Fuc(a1-2)Gal(b1-4)GlcNAc
Procedure, shortened: as §1

[19] = target: Fuc(a1-2)Gal(b1-4)GlcNAc(b1-2)Man
Procedure, shortened: as §1

[20] = target: Fuc(a1-2)Gal(b1-4)GlcNAc(b1-2)Man(a1-3)[Fuc(a1-2)Gal(b1-4)GlcNAc(b1-2)Man(a1-6)]Man(b1-4)GlcNAc(b1-4)GlcNAc
Procedure, shortened: as §1

[21] = target: Fuc(a1-2)Gal(b1-4)GlcNAc(b1-2)Man(a1-3)[Fuc(a1-2)Gal(b1-4)GlcNAc(b1-2)Man(a1-6)]Man(b1-4)GlcNAc(b1-4)[Fuc(a1-6)]GlcNAc
Procedure, shortened: as §1

[22] = target: Fuc(a1-2)Gal(b1-4)GlcNAc(b1-2)[Fuc(a1-2)Gal(b1-4)GlcNAc(b1-4)]Man(a1-3)[Fuc(a1-2)Gal(b1-4)GlcNAc(b1-2)Man(a1-6)]Man(b1-4)GlcNAc(b1-4)GlcNAc
Procedure, shortened: as §1

[23] = target: Fuc(a1-2)Gal(b1-4)GlcNAc(b1-3)Gal(b1-4)GlcNAc
Procedure, shortened: as §1

[24] = target: Fuc(a1-2)Gal(b1-4)GlcNAc(b1-3)Gal(b1-4)GlcNAc(b1-2)Man(a1-3)[Fuc(a1-2)Gal(b1-4)GlcNAc(b1-3)Gal(b1-4)GlcNAc(b1-2)Man(a1-6)]Man(b1-4)GlcNAc(b1-4)GlcNAc
Procedure, shortened: as §1

B1: Arath Fbox LD (Arabidopsis thaliana) (protein)
chain: EFSVWLEKASGKRCLMLSAMNLSIIWGDNPQYWQWIPIPESRFEKVAKLRDVCWFEIRGRTNTRVLSPRTRYSAYIVFKGVDKCYGFQNVAIEAAVGVVGQEPSRRLICFSEAIRRGRRNVVKPKQREDGWMEIELGEFFNDGGIMDNDEIEMSALETKQLNRKCGLIIQGIEIRPAKILAAASFLEQKLISEEDLNSAVDHHHHHH
Fuc(a1-2)Gal
  glycan array binding signal (z-score): 0.094
Fuc(a1-2)Gal(b1-3)GalNAc
  glycan array binding signal (z-score): -0.488
[1]
  glycan array binding signal (z-score): -0.137
[2]
  glycan array binding signal (z-score): -0.427
[3]
  glycan array binding signal (z-score): -0.344
[4]
  glycan array binding signal (z-score): -0.358
[5]
  glycan array binding signal (z-score): 0.037
Fuc(a1-2)Gal(b1-3)GlcNAc
  glycan array binding signal (z-score): 1.32
[6]
  glycan array binding signal (z-score): -0.423
[7]
  glycan array binding signal (z-score): 0.392
[8]
  glycan array binding signal (z-score): -0.109
[9]
  glycan array binding signal (z-score): -0.338
[10]
  glycan array binding signal (z-score): -0.273
[11]
  glycan array binding signal (z-score): -0.625
[12]
  glycan array binding signal (z-score): -0.52
[13]
  glycan array binding signal (z-score): -0.164
[14]
  glycan array binding signal (z-score): -0.523
[15]
  glycan array binding signal (z-score): 0.902
[16]
  glycan array binding signal (z-score): -0.515
[17]
  glycan array binding signal (z-score): -0.601
[18]
  glycan array binding signal (z-score): -0.549
Fuc(a1-2)Gal(b1-4)Glc
  glycan array binding signal (z-score): 0.065
Fuc(a1-2)Gal(b1-4)Glc6S
  glycan array binding signal (z-score): -0.443
Fuc(a1-2)Gal(b1-4)GlcNAc
  glycan array binding signal (z-score): 0.053
[19]
  glycan array binding signal (z-score): -0.526
[20]
  glycan array binding signal (z-score): 1.26
[21]
  glycan array binding signal (z-score): -0.274
[22]
  glycan array binding signal (z-score): 0.105
[23]
  glycan array binding signal (z-score): -0.456
[24]
  glycan array binding signal (z-score): -0.376
